This is an account of results in the RNAGym collection of RNA variant scans (doi:10.7554/elife.90254).

The source gives no read counts; variants with many changes may rest on few reads.

The chains are these.
B1: LINE1-full (parent)
chain: UACGUAGGUGGUUUUCCCCUGAUAGUGCUAAGGGGGCCUGGAAGUUUGGACUGGGCAGAGCUCAACACAGCGUGGCAAAGUGGCUGUGGCUAGACUGCCUCUCUGGAUUCCUCGUCACUCAGCAGGGCAUCUCUGAGAGAAAUGCC

In the series the parent is B1. As to the kind of experiment: self-cleavage, relative activity (ratio to wild type); higher = more cleavage; in vitro, sequencing; the parent is a self-cleaving ribozyme.
In the case of U62C U73C A121C, the self-cleavage worked out at 0.
The same measure for U62A A79U U81A: 0.02.
Regarding U62C A124U A138G, the self-cleavage worked out at 0.
On to C61U A64G A121U, for which the self-cleavage stood at 0.06.
As for U62A U87C A140G, the self-cleavage came to 0.13.
On to U62C A78U U109C U130C A142G, for which the self-cleavage was 0.03.
In the case of U62C U87C G139A, the self-cleavage worked out at 0.19.
For the variant C63A U96C C116A, the self-cleavage is 0.05.
U62G A79G A138G: the self-cleavage was found to be 0.38.
The same measure for U62C U91C A141G: 0.
For U62C U85C C113A, the self-cleavage is 0.1.
U62A U100A U119A: the self-cleavage stood at 0.04.
Take A59U A107G A124G: the self-cleavage worked out at 1.19.
The same measure for C63A A65G U130C: 0.11; for U62C A79G U100A U115C U143C: 0.
Regarding C63U U104C U115C, the self-cleavage is 0.64.
The same measure for U62C U81A A129G A141G: 0.05; for U62C A94G U104C: 0; for U62C U87A A92U U130C: 0.08.
Take A59U A79G U115C: the self-cleavage came to 0.
The result for U62A A69U U119G reads 0.05; that for U62A A136C G137A, 0.04; that for A59U U62C U87C U134A, 0.
In the case of U62C G97A U143C, the self-cleavage was determined as 0.01.
In the case of U62A A136G A140G A141G, the self-cleavage amounted to 0.
As for U62C U96G U115C A140U, the self-cleavage is 0.
As to A59U U85A A107G, the self-cleavage was determined as 0.13.
On to U62C U104A A124G U134A U143A, for which the self-cleavage was found to be 0.
In the case of A59U U112A A129G A141G, the self-cleavage turned out to be 1.9.
For the variant U62A U100C U102A, the self-cleavage is 0.
Consider A59U U96A A138U, for which the self-cleavage was 0.21.
On to C63U U91C A124G, for which the self-cleavage amounted to 0.15.
Take U62A U104C C116U U134A A138G: the self-cleavage was 0.03.
The same measure for U62A U87C U134C: 0.
Regarding U62C A69U G75A, the self-cleavage was 0.01.
In the case of G60U U96C A129G, the self-cleavage came out at 0.01.
Consider U62C A64U A79G U119G, for which the self-cleavage was 0.16.
Regarding U62C A77G U87C C123U A138G, the self-cleavage was 0.03.
Take A59U A79G A124U: the self-cleavage was 1.41.
Take A59U A79G U132C: the self-cleavage is 0.79.
For the variant U62C A65U U119C U134C, the self-cleavage stood at 0.06.
U62C A117U U119C U143A: the self-cleavage was determined as 0.06.
Regarding A59U C61A U143C, the self-cleavage is 0.03.
In the case of A59U G80A U100C, the self-cleavage amounted to 2.17.
Turning to U62C A121G A138U, the self-cleavage turned out to be 0.05.
The result for U62C A117C A141G reads 0.04; that for C63U A78G A142G, 0.2.
As to C63U A69U U112A, the self-cleavage turned out to be 0.04.
U62C U115C A141G: the self-cleavage came to 0.88.
The same measure for U62C U81A U100C: 0.
Regarding U62C A64G A136G, the self-cleavage is 0.
The result for U62C U73A G125A reads 0.03.
As for U62C A107G U130C, the self-cleavage was found to be 0.15.
On to U62C G80A U119A, for which the self-cleavage came to 0.03.
The same measure for C61U G126A U134C A142G: 0.04; for U62C U85C A94U U96C: 0; for C61U A77U A121C: 0.04.
With A59U C84A A141U, the self-cleavage came out at 0.11.
As to U62C A67G U87A A136G U143A, the self-cleavage came to 0.14.
Turning to U62C U85A A107U, the self-cleavage stood at 0.03.
On to U62C C63U A78U, for which the self-cleavage amounted to 0.09.
The result for U62C U112C U132C reads 0.06.
As to U62C U87A A124G, the self-cleavage worked out at 0.07.
Take U62C A78G A140G A141G: the self-cleavage is 0.04.
U62C C118U A124G A129G: the self-cleavage was 0.
Consider U62A U87C U130A, for which the self-cleavage turned out to be 0.09.
The result for U62A A94G C99U U102C reads 0.04; that for U62C U109A G137A, 0.08; that for C63G A79U U100C A138G, 0.15.
Turning to U62A A64U A92G A124G, the self-cleavage was 0.14.
U62C U130G A142G: the self-cleavage was 0.
As to U62C A65C U115C, the self-cleavage turned out to be 0.
Take A59U U85A G127A A136G: the self-cleavage was found to be 0.06.
With U62C U112A A141G, the self-cleavage was 0.07.
U62A U119C A136C: the self-cleavage came to 0.04.
Consider U62C U81C U85A, for which the self-cleavage was 0.
Consider U62C A142G U143C, for which the self-cleavage came to 0.
For U62C A65U A129G, the self-cleavage came to 0.09.
For the variant G60U C63U U81C U108C, the self-cleavage was 0.03.
In the case of U62C A77U A117U A138U, the self-cleavage came to 0.03.
The result for U62C U115C A140G reads 0.08.
As to U62G A77G U104C A141G, the self-cleavage amounted to 0.
The result for U62C A77U U96A reads 0.05.
As for U62A U87A A142G, the self-cleavage was 0.07.
The result for U62A U130A C146U reads 0.04; that for C63U U112C A136U A140G, 0.4; that for A59U A92U U108C, 1.08.
In the case of U62C A69C G89A A138G, the self-cleavage is 0.02.
Regarding G60A A65G A124G, the self-cleavage is 0.
For U62G A77U U112A, the self-cleavage was 0.06.
For U62C A79G U81C, the self-cleavage came to 0.
U62C U85A U115A A142G: the self-cleavage came out at 0.06.
As to U62A A64G A77G, the self-cleavage worked out at 0.
U62A U85A A121G: the self-cleavage worked out at 0.05.
For the variant U62C A107G G127A, the self-cleavage was 0.
U62C U100A A124U: the self-cleavage turned out to be 0.18.
U62C U134C A136G: the self-cleavage was found to be 0.09.
Take U62C A121C G139U: the self-cleavage turned out to be 0.07.
Regarding U62C A65G A129U A141G, the self-cleavage is 0.14.
Take U62C A65G A140U: the self-cleavage worked out at 0.03.
Regarding U62A U81A U102C, the self-cleavage worked out at 0.02.
In the case of U62A A92G A129G, the self-cleavage stood at 0.
Turning to U62C U81C C103A, the self-cleavage worked out at 0.08.
For the variant C61G A94G U100C A142G, the self-cleavage worked out at 0.
Take U62C A117U A138U: the self-cleavage is 0.07.
In the case of U62A A64U U81A, the self-cleavage is 0.19.
For U62C C90U U108C A136G U143C, the self-cleavage amounted to 0.
As to U62C U91C U109C U119A, the self-cleavage stood at 0.
Take U62A U96C A121U: the self-cleavage stood at 0.
With U62C A67U A79G, the self-cleavage amounted to 0.05.
In the case of U62A G75A U119C, the self-cleavage worked out at 0.
G60A U73C A121G: the self-cleavage worked out at 0.08.
Turning to C61U G74A A79G C113U, the self-cleavage was 0.02.
Take U62A A69G A138U: the self-cleavage is 0.2.
As for C61A C63A A65U A94G A124G G125A, the self-cleavage was found to be 0.
For U62A C98U G122U, the self-cleavage was found to be 0.01.
For the variant U62C C98A U104C A142G, the self-cleavage came to 0.04.
Regarding G60A G86A C131G, the self-cleavage worked out at 0.03.
The result for U62C A94U U104C reads 0.03.
The same measure for U62C A79G U109C A117C A141G: 0; for U62A A65G A124G: 0; for U62C A136G A141U: 0.01.
As to U62C U73A A78G U104C, the self-cleavage amounted to 0.09.
For C61U A69G A124G A138G, the self-cleavage was 0.07.
For U62A A65G G89A, the self-cleavage amounted to 0.03.
Take C61A A77G C84U U130A A136G A138G C145U: the self-cleavage came out at 0.
As for U62C U73C U104C, the self-cleavage was determined as 0.27.
U62C U104A U108C A141G: the self-cleavage stood at 0.07.
Consider G60C U130C U143C, for which the self-cleavage is 0.03.
The same measure for U62A U96C A140G: 0.07; for A59U C76U U119A A140G C145U: 0.61.
The same measure for U62C A69G U73A A124G A141G: 0.
The result for U62A A67G U96C A136U reads 0; that for U62C U81C A141U, 0.13; that for G60U C71A U87G, 0.03.
On to U62C U91C A117U, for which the self-cleavage stood at 0.
Consider A59U U62A A124G, for which the self-cleavage was found to be 0.03.
For A59U G88U C116U, the self-cleavage turned out to be 0.04.
In the case of U62C A77G G106A, the self-cleavage was found to be 0.
Take A59U U87C U132C A140G: the self-cleavage turned out to be 0.26.
Turning to U62C C111U U112C A142G, the self-cleavage turned out to be 0.14.
The result for U62C U115A A136G A140U reads 0.13; that for A59U U119A A138G, 0.5.
For A59U U81C U115C, the self-cleavage turned out to be 1.45.
Take U62A A129G U132C A136G: the self-cleavage came to 0.06.
With C63A A64C U81A U108A U132C, the self-cleavage was 0.05.
Take U62C U81C U130C U143C: the self-cleavage worked out at 0.
The same measure for U62C A78G G88A A142G: 0.08.
For the variant G60A A107G U134G A141G, the self-cleavage was determined as 0.02.
Take A59U A107U A129U: the self-cleavage was determined as 0.82.
The same measure for C61U A117G G125A C133U: 0.01; for U62C G89U U96C A142G: 0.03; for U62C G75A U115A: 0.04.
Take C63U A78G U104A A124G: the self-cleavage stood at 0.13.
In the case of A59U U102C U115C, the self-cleavage came out at 0.99.
On to U62C A67G A78U A79U, for which the self-cleavage worked out at 0.
The same measure for U62C A121U U143C: 0.04; for A59U U108C U130C: 1.19; for U62C A65U A79G: 0.16.
For the variant U62A A67G A77U A129G, the self-cleavage amounted to 0.07.
Regarding U62C A64U A138U A140G A141G, the self-cleavage amounted to 0.03.
As for U62G A78G U100A, the self-cleavage stood at 0.1.
For U62C A64C G75A, the self-cleavage turned out to be 0.05.
Take C63U U85C U130C U134A: the self-cleavage was found to be 0.08.
For U62C U130C U143A, the self-cleavage came to 0.
As for U62A U87G A129G, the self-cleavage was determined as 0.03.
On to U62C A129U U130C G135A, for which the self-cleavage was determined as 0.06.
